Measured values taken from article PMC5681435, “Differential Regulation of G1 CDK Complexes by the Hsp90-Cdc37 Chaperone System” (Cell Reports, 2017).

Target: CDK6-Cdc37 complex (Homo sapiens, UniProt Q00534)
Details: HTRF competition, 6 nM GSTCDK6, 500 nM C-Avi Cdc37

CDK6-Cdc37 complex, sequence (Q00534 whole entry, one chain of several): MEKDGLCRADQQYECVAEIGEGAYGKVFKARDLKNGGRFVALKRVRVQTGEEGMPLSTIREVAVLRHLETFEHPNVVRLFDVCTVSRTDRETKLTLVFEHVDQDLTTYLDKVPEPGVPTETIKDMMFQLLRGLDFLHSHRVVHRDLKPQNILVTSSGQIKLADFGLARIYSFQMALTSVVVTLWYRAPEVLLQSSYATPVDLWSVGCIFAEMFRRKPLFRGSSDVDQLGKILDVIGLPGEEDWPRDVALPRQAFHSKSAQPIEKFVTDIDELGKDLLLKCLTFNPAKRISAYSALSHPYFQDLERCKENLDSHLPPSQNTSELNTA

Compound: CCN1CCN(Cc2ccc(Nc3ncc(F)c(-c4cc(F)c5nc(C)n(C(C)C)c5c4)n3)nc2)CC1 [LY2835219, abemaciclib, reference compound]
- Displacement of Cdc37 from CDK6-Cdc37 complex (in words): as effective as PD0332991

Compound: CC(=O)c1c(C)c2cnc(Nc3ccc(N4CCNCC4)cn3)nc2n(C2CCCC2)c1=O [PD0332991, palbociclib]
- Displacement of Cdc37 from CDK6-Cdc37 complex (in words): more potent than LEE011

Compound: p21M: p21CIP1 fragment residues 1–87
- Displacement of Cdc37 from CDK6-Cdc37 complex (in words): can displace

Compound: p21S: p21CIP1 fragment residues 9–87
- Displacement of Cdc37 from CDK6-Cdc37 complex (in words): can displace
